# In all, about 48,000 compounds went through this assay and about 450 (0.94%) were called active. Inconclusive results (about 19%) are left out. The call rests on the fitted dose curve; in most records, active means well fitted inhibition curve with a large enough effect; inconclusive means small, poorly fitted or top-dose-only effect; inactive means no such curve, though single readings can be large or run the other way. The list shows a part of the results.
# Assay: Primary qHTS for Identification of Small Molecule Inhibitors of Huntingtin Promoter Activity; further: nearly all actives have a fitted effect of over 50% in size
# Conditions: HEK293 HTT promoter firefly luciferase reporter (activity 0% = vehicle and -100% = no light), 24 h; series mostly up to 57.5 µM; activity change, negative = inhibition: at the top concentration
# How it was run: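 Firefly luciferase signal from promoter-reporter HEK293 cells was scaled between vehicle (0%) and zero RLU (-100%). Compounds were tested at final concentrations of up to 57.5 uM over 24 h at 37 degrees C. PTC124 at 50 uM final served as control inhibitor.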
row,Structure (SMILES),"activity change, negative = inhibition"
1,O=C(O)c1ccc2c(c1)ncn2-c1ccc(F)c(F)c1,inactive: 1%
2,COc1ccc(NC(=O)C2=C(C)Nc3ncnn3C2c2ccc(O)cc2)cc1 (stereo unspecified),inactive: -8.39%
3,COc1ccc(OC)c(NC(=O)c2cc3c(=O)oc4ccccc4c3s2)c1,inactive: -4.55%
4,CCN(CC)c1nn2c(=O)c(C(=O)NCCc3ccccc3)cnc2s1,inactive: 6.8%
5,Cc1ccc(C)c(NC(=O)c2ccc3c(O)c(S(=O)(=O)c4ccc(Cl)cc4)c(=O)[nH]c3c2)c1,inactive: -6.37%
6,Cc1cc2c(cc1S(=O)(=O)NCc1ccccc1Cl)OCCN2C,inactive: -2.61%
7,CCCCSCCCNC(=O)CN1C(=O)c2cccnc2Oc2ccc(Cl)cc21,inactive: 2.58%
8,Fc1ccc(-c2noc3ncnc(N4CCN(c5ccccc5)CC4)c23)cc1,inactive: -25.3%
9,COc1ccc(S(=O)(=O)N2CCN(c3ccccc3F)CC2)cc1-c1noc(C)n1,inactive: 7.89%
10,O=C(NCc1ccc(F)cc1)c1ccc2c(Cl)c3c(nc2c1)CCCC3,inactive: -19.3%
11,CCOC(=O)c1ccccc1NC(=O)C(=O)Nc1ccc2nc3n(c(=O)c2c1)CCCCC3,inactive: -21%
12,COc1ccc(NC(=O)C2CCN(S(=O)(=O)c3ccc4[nH]c(=O)ccc4c3)CC2)c(OC)c1,inactive: -6.54%
13,Cc1cn2c(=O)cc(COc3cccc(NC(=O)c4ccccc4C)c3)nc2s1,inactive: -15.3%
14,COc1ccc(OC)c(NC(=O)Cc2coc3ccc(C(C)C)cc23)c1,inactive: -30.4%
15,CCOC(=O)c1[nH]c(C)c(CCC(=O)NCc2ccccc2)c1C,inactive: -8.49%
16,CCOC(=O)c1c(-c2ccccc2)oc2ccc(N(C(C)=O)S(=O)(=O)c3cc(C)ccc3C)cc12,inactive: 0.665%
17,CCc1c(C)nc(SCC(=O)N2CCN(c3ccccc3OC)CC2)[nH]c1=O,inactive: -6.37%
18,CCOC(=O)c1ccccc1NC(=O)Cn1cc(C(=O)c2cccc(OC)c2)c(=O)c2ccc(C)nc21,inactive: -8.23%
19,CCOC(=O)c1c(C)[nH]c(CCC(=O)NCCCN2CCN(c3ccc(F)cc3)CC2)c1C,inactive: -21.2%
20,Cc1cccc(-c2nc(S(=O)(=O)c3ccc(F)cc3)c(N3CCN(c4ccccc4)CC3)o2)c1,inactive: -4.86%
21,Cc1ccc(CCNC(=O)c2ccc3c(c2)N(Cc2cccc(C)c2)C(=O)c2ccccc2S3(=O)=O)cc1,inactive: -4.32%

row,Structure (SMILES),"activity change, negative = inhibition"
1,CC(C)c1ccc(NC(=O)c2cc3c(s2)-c2ccccc2SC3)cc1,inactive: -17.5%
2,Cc1cc(=O)[nH]c2nnc(SCC(=O)NC(C)(C)C)n12,inactive: -5.51%
3,CCc1ccc(N=C2NC(=O)CC(C(=O)Nc3ccc(OC)cc3)S2)cc1 (stereo unspecified),inactive: -6.19% [at 11.5 µM]
4,COc1cc2c(cc1OC)C(COc1ccccc1OC)N(C(=O)CC(C)C)CC2 (stereo unspecified),inactive: -21.4%
5,CC(=O)N1CCc2cc(CNS(=O)(=O)c3ccc(F)cc3)ccc21,inactive: 10.1%
6,CCc1ccc(-c2cn3c(n2)sc2cc(C(=O)NC4CCCCCC4)ccc23)cc1,inactive: -13.1%
7,O=C(NCc1cccc(Cl)c1)c1cc2c(s1)-c1ccccc1OC2,inactive: -4.95%
8,COCCc1nn2c(=O)cc(COC(=O)c3ccc4c(c3)OCO4)nc2s1,inactive: -2.19%
9,Cc1ccc(NC2=C(c3ccc(C(F)(F)F)cc3)C(=O)c3ccccc32)cc1C,inactive: 20.9%
10,CC(=O)Nc1ccc(C(=O)CSc2nnc(-c3ccccc3)n2-c2ccccc2)cc1,inactive: -24.5%
11,Cc1ccc(-c2cc(C(=O)NCc3cnn(C)c3C)c3cc(Br)ccc3n2)cc1,inactive: 17.8%
12,O=C(NC1CC1)c1ccc(Cn2c(SCc3cccc(F)c3)nc3cccnc32)cc1,inactive: -17.2%
13,O=C(Nc1ccc(Cl)cc1)C1CCN(c2nc3ccccc3nc2C(F)(F)F)CC1,inactive: 1.35%
14,COc1ccccc1N1CCN(C(=O)c2ccc(CS(=O)c3ccccc3C)o2)CC1 (stereo unspecified),inactive: -26.4%
15,CCS(=O)(=O)N1CCc2cc(C(=O)NCc3ccc(OC)cc3)ccc21,inactive: -2.51%
16,Cn1cc(S(=O)(=O)c2cccc(Cl)c2)c(=O)c2cc(F)c(N3CCCCCC3)cc21,inactive: -10%
17,O=C(O)P(=O)(O)O,inactive: 5.74%
18,CCC(CC)C(=O)Nc1ccc(OCc2cc(=O)n3c4c(sc3n2)CCCC4)cc1,inactive: -14.2%
19,CCOc1ccc(NC(=O)c2ccc3c(SCC(=O)O)c4c(nc3c2)CCCC4)cc1,inactive: -39.5%
20,O=C(Nc1ccc(NC(=O)c2cc3ccccc3o2)cc1)c1ccccc1,inactive: 0.241%
21,O=C(CN1CCN(S(=O)(=O)c2cc(Cl)ccc2Cl)CC1)Nc1cccc(F)c1,inactive: -24.7%

row,Structure (SMILES),"activity change, negative = inhibition"
1,Cn1cc(S(=O)(=O)c2ccc(Cl)cc2)c(=O)c2cc(F)c(N3CCCCCC3)cc21,inactive: -8.55%
2,Fc1ccc(-c2nc(Nc3ccc(F)c(Cl)c3)nc3c2COc2ccccc2-3)cc1,inactive: -11%
3,CC(C(=O)Nc1cccc(C#N)c1)n1nc(-c2ccccc2)c2c(c1=O)CCCC2 (stereo unspecified),inactive: -20.5%
4,CC1=C(C(=O)Nc2ccc(C)cc2C)C(c2ccccc2[N+](=O)[O-])n2ncc(C(=O)Nc3ccccc3)c2N1 (stereo unspecified),inactive: 17.1%
5,CCOC(=O)C1CCCN(C(=O)c2ccc3c(c2)N(Cc2ccccc2)C(=O)c2ccccc2S3(=O)=O)C1 (stereo unspecified),inactive: -0.805%
6,CCCCN(C)CCNC(=O)c1cc(-c2cccnc2)nc2ccc(S(=O)(=O)N3CCC(C)CC3)cc12,inactive: 1.1%
7,Cc1ccn2c(c1)nc(=O)c1cc(S(=O)(=O)N3CCC(C)CC3)c(Cl)cc12,inactive: -10%
8,CN(Cc1ccccc1)c1nc(-c2ccc(F)cc2)cc(C(F)(F)F)n1,inactive: -17.7%
9,O=C(COc1ccccc1F)Nc1ccc(C(=O)OCc2cc(=O)n3nc(C4CC4)sc3n2)cc1,inactive: -10.6%
10,Cc1ccc(-c2cc3ncc(C(=O)c4cc([N+](=O)[O-])ccc4O)cn3n2)cc1,inactive: -6.66%
11,Cc1ccc(NC(=O)CCSCCc2ccccn2)cc1,inactive: -10.2%
12,CC1=C(C)C(=O)C(CCCCC#CCCCC#CCO)=C(C)C1=O,inactive: -17.5%
13,COc1ccc(Br)cc1CNC(=O)CCCn1c(=O)c2cccn2c2ccccc21,inactive: -27.5%
14,CCC(C(=O)Nc1cccc(-c2cn3cccnc3n2)c1)c1ccccc1 (stereo unspecified),inactive: -19.6%
15,CCC(Oc1ccccc1F)C(=O)Nc1c(C(=O)c2ccccc2)oc2ccccc12 (stereo unspecified),inactive: -3.59%
16,CC(C)(C)OC(=O)N1CCC(c2c(C(=O)NCc3ccc4c(c3)OCO4)cnn2-c2ccc(F)cc2F)CC1,inactive: -26.6%
17,O=C(Nc1ccc(Cl)cc1)C1CCN(c2nc3ccccc3n3cccc23)CC1,inactive: -13%
18,CN(C)c1ccc(C(CNS(=O)(=O)c2ccc(Cl)cc2)N2CCCC2)cc1 (stereo unspecified),inactive: -16.1%
19,CC1=C(C(=O)Nc2ccc(C)cc2C)C(c2ccccc2C)n2ncnc2N1 (stereo unspecified),inactive: -43.8%
